Reference: article PMC4381594
No constants are given. Whether binding was seen depends on the method and setting. In cells and extracts the contact can be indirect. Some entries that bind do so weakly or less than the wild type. Sequences can lack the tags named with a protein.

T1: XBP-1S, the active isoform of X-box binding protein 1 (human) (UniProt P17861)
T1 sequence: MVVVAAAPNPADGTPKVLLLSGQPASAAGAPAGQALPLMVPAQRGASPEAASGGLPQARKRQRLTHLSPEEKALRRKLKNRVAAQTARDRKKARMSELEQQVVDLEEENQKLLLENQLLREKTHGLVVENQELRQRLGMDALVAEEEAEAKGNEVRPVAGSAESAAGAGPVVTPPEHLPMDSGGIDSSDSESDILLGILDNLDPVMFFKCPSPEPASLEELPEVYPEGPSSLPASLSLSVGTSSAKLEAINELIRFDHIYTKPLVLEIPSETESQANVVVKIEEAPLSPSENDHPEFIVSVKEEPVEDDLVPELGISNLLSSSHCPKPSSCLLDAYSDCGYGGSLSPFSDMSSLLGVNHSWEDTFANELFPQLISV


Experiments:
[1] = biological target: T1, XBP-1S, the active isoform of X-box binding protein 1 (human); experiment: co-IP; 293T cells co-transfected with expression plasmids; lysates two days after transfection; IP with anti-XBP-1 antibody (Roche IP kit), Western blot (anti-GCN5 or anti-GFP); normal IgG as control
[2] = biological target: general control nonderepressible 5 (GCN5) (human) (UniProt Q92830); experiment: co-IP; 293T cells co-transfected with expression plasmids; lysates; IP with anti-GCN5 antibody, Western blot with anti-XBP-1 or anti-HA; normal IgG as control

| binding [1] | binding [2] | Binder |
| --- | --- | --- |
| – | binds | XBP-1S, the active isoform of X-box binding protein 1 (protein, UniProt P17861-2 1-376) MVVVAAAPNPADGTPKVLLLSGQPASAAGAPAGQALPLMVPAQRGASPEAASGGLPQARKRQRLTHLSPEEKALRRKLKNRVAAQTARDRKKARMSELEQQVVDLEEENQKLLLENQLLREKTHGLVVENQELRQRLGMDALVAEEEAEAKGNEVRPVAGSAESAAGAGPVVTPPEHLPMDSGGIDSSDSESDILLGILDNLDPVMFFKCPSPEPASLEELPEVYPEGPSSLPASLSLSVGTSSAKLEAINELIRFDHIYTKPLVLEIPSETESQANVVVKIEEAPLSPSENDHPEFIVSVKEEPVEDDLVPELGISNLLSSSHCPKPSSCLLDAYSDCGYGGSLSPFSDMSSLLGVNHSWEDTFANELFPQLISV |
| – | binds | HA-tagged XBP-1S (protein, UniProt P17861-2 1-376) MVVVAAAPNPADGTPKVLLLSGQPASAAGAPAGQALPLMVPAQRGASPEAASGGLPQARKRQRLTHLSPEEKALRRKLKNRVAAQTARDRKKARMSELEQQVVDLEEENQKLLLENQLLREKTHGLVVENQELRQRLGMDALVAEEEAEAKGNEVRPVAGSAESAAGAGPVVTPPEHLPMDSGGIDSSDSESDILLGILDNLDPVMFFKCPSPEPASLEELPEVYPEGPSSLPASLSLSVGTSSAKLEAINELIRFDHIYTKPLVLEIPSETESQANVVVKIEEAPLSPSENDHPEFIVSVKEEPVEDDLVPELGISNLLSSSHCPKPSSCLLDAYSDCGYGGSLSPFSDMSSLLGVNHSWEDTFANELFPQLISV |
| binds | – | GFP-tagged PCAF truncation 475-832 a.a. (domain or fragment, UniProt Q92831 475-832) LSAHSARDEAARLEERRGVIEFHVVGNSLNQKPNKKILMWLVGLQNVFSHQLPRMPKEYITRLVFDPKHKTLALIKDGRVIGGICFRMFPSQGFTEIVFCAVTSNEQVKGYGTHLMNHLKEYHIKHDILNFLTYADEYAIGYFKKQGFSKEIKIPKTKYVGYIKDYEGATLMGCELNPRIPYTEFSVIIKKQKEIIKKLIERKQAQIRKVYPGLSCFKDGVRQIPIESIPGIRETGWKPSGKEKSKEPRDPDQLYSTLKSILQQVKSHQSAWPFMEPVKRTEAPGYYEVIRFPMDLKTMSERLKNRYYVSKKLFMADLQRVFTNCKEYNPPESEYYKCANILEKFFFSKIKEAGLIDK |

The remaining lines, values behind:

| Binder | binding [1] | binding [2] |
| --- | --- | --- |
| GFP-tagged GCN5 truncation 1-700 a.a. (domain or fragment, UniProt Q92830 1-700) MAEPSQAPTPAPAAQPRPLQSPAPAPTPTPAPSPASAPIPTPTPAPAPAPAAAPAGSTGTGGPGVGSGGAGSGGDPARPGLSQQQRASQRKAQVRGLPRAKKLEKLGVFSACKANETCKCNGWKNPKPPTAPRMDLQQPAANLSELCRSCEHPLADHVSHLENVSEDEINRLLGMVVDVENLFMSVHKEEDTDTKQVYFYLFKLLRKCILQMTRPVVEGSLGSPPFEKPNIEQGVLNFVQYKFSHLAPRERQTMFELSKMFLLCLNYWKLETPAQFRQRSQAEDVATYKVNYTRWLCYCHVPQSCDSLPRYETTHVFGRSLLRSIFTVTRRQLLEKFRVEKDKLVPEKRTLILTHFPKFLSMLEEEIYGANSPIWESGFTMPPSEGTQLVPRPASVSAAVVPSTPIFSPSMGGGSNSSLSLDSAGAEPMPGEKRTLPENLTLEDAKRLRVMGDIPMELVNEVMLTITDPAAMLGPETSLLSANAARDETARLEERRGIIEFHVIGNSLTPKANRRVLLWLVGLQNVFSHQLPRMPKEYIARLVFDPKHKTLALIKDGRVIGGICFRMFPTQGFTEIVFCAVTSNEQVKGYGTHLMNHLKEYHIKHNILYFLTYADEYAIGYFKKQGFSKDIKVPKSRYLGYIKDYEGATLMECELNPRIPYTELSHIIKKQKEIIKKLIERKQAQIRKVYPGLSCFKEGV | no binding | – |
| GFP-tagged PCAF truncation 1-475 a.a. (domain or fragment, UniProt Q92831 1-475) MSEAGGAGPGGCGAGAGAGAGPGALPPQPAALPPAPPQGSPCAAAAGGSGACGPATAVAAAGTAEGPGGGGSARIAVKKAQLRSAPRAKKLEKLGVYSACKAEESCKCNGWKNPNPSPTPPRADLQQIIVSLTESCRSCSHALAAHVSHLENVSEEEMNRLLGIVLDVEYLFTCVHKEEDADTKQVYFYLFKLLRKSILQRGKPVVEGSLEKKPPFEKPSIEQGVNNFVQYKFSHLPAKERQTIVELAKMFLNRINYWHLEAPSQRRLRSPNDDISGYKENYTRWLCYCNVPQFCDSLPRYETTQVFGRTLLRSVFTVMRRQLLEQARQEKDKLPLEKRTLILTHFPKFLSMLEEEVYSQNSPIWDQDFLSASSRTSQLGIQTVINPPPVAGTISYNSTSSSLEQPNAGSSSPACKASSGLEANPGEKRKMTDSHVLEEAKKPRVMGDIPMELINEVMSTITDPAAMLGPETNFL | binds | – |
| GFP-tagged PCAF truncation 1-700 a.a. (domain or fragment, UniProt Q92831 1-700) MSEAGGAGPGGCGAGAGAGAGPGALPPQPAALPPAPPQGSPCAAAAGGSGACGPATAVAAAGTAEGPGGGGSARIAVKKAQLRSAPRAKKLEKLGVYSACKAEESCKCNGWKNPNPSPTPPRADLQQIIVSLTESCRSCSHALAAHVSHLENVSEEEMNRLLGIVLDVEYLFTCVHKEEDADTKQVYFYLFKLLRKSILQRGKPVVEGSLEKKPPFEKPSIEQGVNNFVQYKFSHLPAKERQTIVELAKMFLNRINYWHLEAPSQRRLRSPNDDISGYKENYTRWLCYCNVPQFCDSLPRYETTQVFGRTLLRSVFTVMRRQLLEQARQEKDKLPLEKRTLILTHFPKFLSMLEEEVYSQNSPIWDQDFLSASSRTSQLGIQTVINPPPVAGTISYNSTSSSLEQPNAGSSSPACKASSGLEANPGEKRKMTDSHVLEEAKKPRVMGDIPMELINEVMSTITDPAAMLGPETNFLSAHSARDEAARLEERRGVIEFHVVGNSLNQKPNKKILMWLVGLQNVFSHQLPRMPKEYITRLVFDPKHKTLALIKDGRVIGGICFRMFPSQGFTEIVFCAVTSNEQVKGYGTHLMNHLKEYHIKHDILNFLTYADEYAIGYFKKQGFSKEIKIPKTKYVGYIKDYEGATLMGCELNPRIPYTEFSVIIKKQKEIIKKLIERKQAQIRKVYPGLSCFKDGVRQIPI | binds | – |
| GFP-tagged GCN5 truncation 456-837 a.a. (domain or fragment, UniProt Q92830 456-837) MELVNEVMLTITDPAAMLGPETSLLSANAARDETARLEERRGIIEFHVIGNSLTPKANRRVLLWLVGLQNVFSHQLPRMPKEYIARLVFDPKHKTLALIKDGRVIGGICFRMFPTQGFTEIVFCAVTSNEQVKGYGTHLMNHLKEYHIKHNILYFLTYADEYAIGYFKKQGFSKDIKVPKSRYLGYIKDYEGATLMECELNPRIPYTELSHIIKKQKEIIKKLIERKQAQIRKVYPGLSCFKEGVRQIPVESVPGIRETGWKPLGKEKGKELKDPDQLYTTLKNLLAQIKSHPSAWPFMEPVKKSEAPDYYEVIRFPIDLKTMTERLRSRYYVTRKLFVADLQRVIANCREYNPPDSEYCRCASALEKFFYFKLKEGGLIDK | binds | – |
